Screen size: about 52,000 compounds; about 1,700 (3.3%) were called active. Rule as the data show it: active = survival mostly below about 52% (no sharp cut-off); inactive = mostly above about 56%. This is one part of the list.

In PubChem BioAssay AID463173 (ICCB-Longwood Screening Facility, Harvard Medical School, 2010) one finds survival data, which are given here for 28 compounds.

The subject of this experiment is Wild type. Description: S. aureus survival, RN4220 and DeltatarO strains – OD600, teichoic acid synthesis inhibitors, primary screen (AID 463173). Conditions: S. aureus RN4220 wild type/DeltatarO growth, OD600, 18 h, hits give low values; concentration not given here unless noted.
With `Cc1cccc(Cn2cccc(C(=O)Nc3nc4ccccc4s3)c2=O)c1`, the survival is inactive: 127%.
`COc1cccc(-n2c(/C=C/c3cccc(C)c3)nc3ccccc3c2=O)c1`: the survival is active: 0%.
The same measure for `O=C1NC(=O)C(=Cc2ccc(N3CCOCC3)cc2)C(=O)N1`: inactive: 86%; for `Cc1cccc(-n2c(CC3C(=O)Nc4ccc(C)cc43)nc3ccccc3c2=O)c1` (stereo not drawn): inactive: 50%; for `O=C(CN1CCC(N2CCCCC2)CC1)N1CCC2(CC1)OCCO2`: inactive: 92%.
The same measure for `Cc1ccc(NC(=O)c2cccn(Cc3ccccc3C)c2=O)c(C)c1`: inactive: 70%; for `CSc1nnc(CCN)n1C`: inactive: 115%.
The same measure for `CN1C(=O)C(C(=O)O)C2CC1Oc1ccccc12` (stereo not drawn): inactive: 131%; for `CC(C)c1nn2c(=O)cc(COC(=O)Cc3ccccc3)nc2s1`: inactive: 71%.
Turning to `O=C1CN=C(c2ccccc2Cl)c2cc(Cl)ccc2N1Cc1cccc(Cl)c1`, the survival was inactive: 128%.
On to `COc1ccc(-n2c(/C=C\c3ccccc3F)nc3ccccc3c2=O)cc1OC`, for which the survival is inactive: 72%.
The same measure for `Nc1c(C(=O)Nc2ccc(Cl)c(C(F)(F)F)c2)sc2nc3c(cc12)N1CCC3CC1`: active: 1%; for `COc1cccc(-n2c(/C=C/c3ccccc3O)nc3ccccc3c2=O)c1`: inactive: 20%.
The result for `CCCCCc1nc2ccccc2c(=O)n1-c1ccc(C)cc1` reads inactive: 70%.
The same measure for `Cc1ccccc1-n1nc(C)c2c1NC(=O)CSC2c1ccc(N(C)C)cc1` (stereo not drawn): inactive: 89%; for `CC(C)(C)C(=O)c1cn(CC(=O)NCc2ccco2)c2ccccc12`: inactive: 119%.
Regarding `COC(=O)C1=C(N)Oc2cc(C)oc(=O)c2C12C(=O)Nc1ccccc12` (stereo not drawn), the survival is inactive: 95%.
The result for `Cc1ccc(CN2C(=O)c3ccccc3Sc3ccc(C(=O)N4CCC5(CC4)OCCO5)cc32)cc1` reads inactive: 75%.
The same measure for `CC1(C)CC(=O)C(C2(O)C(=O)NC(=O)NC2=O)=C(O)C1`: inactive: 118%; for `Cc1ccccc1Cn1cccc(C(=O)Nc2nc3ccccc3s2)c1=O`: inactive: 74%.
The same measure for `N#CC(C#N)=Cc1sc2ccccc2c1Cl`: inactive: 103%.
For `CCCCc1nn2c(=O)cc(COC(=O)Cc3ccccc3)nc2s1`, the survival is inactive: 84%.
The same measure for `O=C1CSC2N1CCNC21CCCCC1` (stereo not drawn): inactive: 103%; for `C=Cc1ccc(Cn2c(C)c(CNCCc3cc(OC)ccc3OC)c(C(=O)O)c2C)cc1`: inactive: 81%.
For `CN1CCCC(C(=O)c2ccccc2)C1` (stereo not drawn), the survival was inactive: 108%.
The same measure for `Cc1cc(C=C(C#N)C#N)c(C)n1C1CCCC1`: inactive: 118%; for `O=C(Nc1cc(C(F)(F)F)cc(C(F)(F)F)c1)c1cccn(Cc2ccccc2Cl)c1=O`: inactive: 89%.
The same measure for `COc1cc(NC(=O)CN2C3CCC2CC(O)(c2cccnc2)C3)cc(OC)c1` (stereo not drawn): inactive: 104%.
